# Data taken from PubChem BioAssay AID686978 (National Center for Advancing Translational Sciences (NCATS), 2013).
# Hit rate of the full screen: of about 420,000 compounds, about 64,000 (15%) were called active. This list was built around the results that the source calls inconclusive (neither active nor inactive); the mix of calls is not that of the screen. Calls follow the shape of the dose curve; as a rule, active = well fitted inhibition curve with a large enough effect; inconclusive = small, poorly fitted or top-dose-only effect; inactive = flat fitted curve, though single readings scatter. Potencies of inconclusive entries are left out as doubtful fits.
# Experiment: qHTS for Inhibitors of human tyrosyl-DNA phosphodiesterase 1 (TDP1): qHTS in cells in absence of CPT; also: nearly all actives have a fitted effect of over 55% in size
# Details: DT40 Tdp1-/- hTDP1 cells, no CPT, ATP luminescence, 48 h; activity change, negative = growth inhibition: at 46.2 µM (top of the series) unless noted
# Method in brief: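 Camptothecin absent (DMSO only). Human TDP1-complemented DT40 knockout cells, 400 cells/well, 37 °C for minimum 48 hr; ATP measured via CellTiter-Glo, 30 min dark incubation, luminescence.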
# % is scaled to controls: 0 for no effect and ±100 for the full control effect; potency is read from the fitted curve at half-maximal effect; tags tell the direction and shape of the fitted curve.
SMILES,Potency,"activity change, negative = growth inhibition"
COc1ccccc1NC(=O)C(=O)NCC(c1ccco1)N1CCc2ccccc21 (stereo unspecified),"inconclusive [inhibitor, single point]",
CCOc1ccc(NC(=O)c2cccc(OC(=S)N3CCOCC3)c2)cc1,"inconclusive [inhibitor, partial curve]",
Cc1ccc(NC(=O)CN2CCC(C(=O)c3ccc(F)cc3)CC2)cc1,"inconclusive [inhibitor, single point]",
CC1CCc2c(sc3ncnc(SCC(=O)c4ccccc4)c23)C1 (stereo unspecified),"inconclusive [inhibitor, single point]",
CC(=O)Nc1cccc(C(=O)/C=C/c2ccc(Br)cc2)c1,active: 4.61 µM,
O=[N+]([O-])c1ccc(Cl)c(/C=N/NC(=S)Nc2ccccc2)c1,active: 10 µM,
COc1ccc(CN(C)C(=O)CCN=C2NS(=O)(=O)c3ccccc32)c(OC)c1,inactive,
Oc1cccc(CN2CCOCC2)c1O,"inconclusive [inhibitor, partial curve]",
Cc1ccn2cc(C(=O)Nc3nnc(C)s3)nc2c1,inactive,
Cn1c(SCC(=O)NCc2ccc(F)cc2)nc2ccccc21,inactive,
COc1ccc(C(=O)NC(=S)NNC(=O)c2ccccc2O)cc1,active: 11.6 µM,
CC(C)=CCc1c(-c2ccc(O)cc2O)oc2c3c(cc(O)c2c1=O)OC(C)(C)C=C3,"inconclusive [inhibitor, single point]",
CNC(=S)N1CCc2cc(OC)c(OC)cc2C1,inactive,
CSc1nc(N)nc(SCC(=O)C(C)(C)C)c1C#N,active: 23.1 µM,
CC1=CC(C)(C)Nc2ccc(OS(=O)(=O)c3ccc(C)cc3)cc21,"inconclusive [inhibitor, partial curve, poor fit]",
COc1ccc(-c2noc(CNC(=O)c3ccc(OC)cc3OC)n2)cc1,"inconclusive [inhibitor, single point]",
CCOC(=O)CCN(Cc1cccs1)S(=O)(=O)c1ccc(Cl)cc1,inactive,
Cc1ccc(C)c(NC(=O)C2CCCN2S(=O)(=O)c2ccc3c(c2)CCCC(=O)N3)c1 (stereo unspecified),,inconclusive: -32.4% [inhibitor]
COc1ccc(C2=NN(C)C(=NCc3ccccc3)SC2)cc1,"inconclusive [inhibitor, single point]",
CCNc1ccc(S(=O)(=O)N(C)C)cc1NCC(=O)Nc1c(F)cccc1F,"inconclusive [inhibitor, single point]",
COc1ccccc1NC(=O)c1oc2ccccc2c1NC(=O)C1CC1,"inconclusive [inhibitor, single point]",
